Reference: PubChem BioAssay AID504466 (National Center for Advancing Translational Sciences (NCATS), 2011)
The campaign covered roughly 330,000 compounds. About 4,200 (1.3%) were called active. Inconclusive results, whose numbers are uncertain, are shown with a selection of clear calls. The call rests on the fitted dose curve; in most records, active means well fitted activation curve with a large enough effect; inconclusive means small, poorly fitted or top-dose-only effect; inactive means no such curve, though single readings can be large or run the other way. Where the call is inconclusive, the potency comes from a doubtful curve fit.

Assay: qHTS screen for small molecules that induce genotoxicity in human embryonic kidney (HEK293T) cells expressing luciferase-tagged ELG1; further: nearly all actives have a fitted effect of over 60% in size; on activity change, positive = activation: % of control where 0% means no effect
Settings: HEK293T ELG1-luciferase reporter, luminescence, 16 h; series mostly up to 46 µM; activity change, positive = activation: at the top concentration
Outline: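 After overnight (16 hr) compound treatment at 37 °C, ELG1-luciferase HEK293T cells were lysed with ONE-Glo; luminescence quantified 30 min later at room temperature.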
Potency means the concentration at half of the fitted maximal effect; tags describe the fitted curve by direction and shape.

Compound | activity change, positive = activation | Potency
O=C(COc1ccc(Cl)cc1Br)NCC(c1ccco1)N1CCCC1 (stereo unspecified) | inactive: -0.452% | 
Cc1ccc(O)c(CNCCNCc2cc(C)ccc2O)c1 |  | inconclusive: 29.1 µM [activator, single point]
CCOC(=O)CN1C(=O)S/C(=C/c2ccc(N3CCCCC3)o2)C1=O | inactive: 0.919% | 
O=C1C2C3C=CC(CO)(O3)C2C(=O)N1c1ccc(-c2ccccc2)cc1 (stereo unspecified) |  | inconclusive: 16.4 µM [activator, partial curve, poor fit]
Cc1cc(Cl)ccc1NC(=O)c1ccc2c(c1)OCO2 |  | inconclusive: 14.6 µM [activator, partial curve]
Cc1nn(-c2ccccc2)c(Cl)c1/C=N/NC(=O)c1ccnn1C |  | active: 14.6 µM
Cc1c(C(=O)O)sc2nc(/C=C/c3cccc(O)c3)[nH]c(=O)c12 | inactive: 0.482% | 
COc1nc2c(C)cccc2cc1-c1noc(-c2ccco2)n1 |  | inconclusive: 18.4 µM [activator, partial curve, poor fit]
Cc1ccc(-n2cnc3cc(NCc4cccs4)ccc32)cc1 |  | active: 9.2 µM
O=C(c1ccc2c3n(nc2c1)-c1ccc(Cl)cc1CO3)N1CCOCC1 |  | active: 18.3 µM
CCOC(CNC(=O)CN1C(=O)COc2ccc(S(=O)(=O)N3CCCC3)cc21)OCC | inactive: 0.386% | 
c1ccc2c(Oc3ccc4c(c3)OCO4)nncc2c1 |  | inconclusive: 1.16 µM [activator, full curve]
CCn1c2ccccc2c2cc(NC(=O)CC(C)=O)ccc21 | inactive: 2.93% | 
CN1CCN(c2ccc(S(=O)(=O)N3CCOCC3)cc2NC(=O)CC(C)(C)C)CC1 | inactive: 1.35% | 
COC(=O)c1ccc(CSc2nc3ccccc3o2)cc1 |  | inconclusive: 3.26 µM [activator, full curve, poor fit]
O=C(c1cnn(-c2nc3ccccc3s2)c1)c1ccccc1O |  | inconclusive: 16.4 µM [activator, partial curve]
Cc1ccc(N2CCN(C(=O)c3nn(C)c4c3CS(=O)(=O)c3ccccc3-4)CC2C)cc1 (stereo unspecified) | inactive: -4.93% | 
CCCSc1nsc(NC(=O)CC)n1 |  | inconclusive: 0.651 µM [activator, full curve]
O=C(C1=C(O)C(=O)N(CC2CCCO2)C1c1ccccc1Cl)c1ccco1 (stereo unspecified) | inactive: -2.4% | 
CNC(=O)c1cc(C(=O)c2ccc(Cl)cc2)c[nH]1 |  | inconclusive: 16.4 µM [activator, partial curve, poor fit]
Cc1csc(NC(=O)Cc2c(F)cccc2Cl)n1 |  | inconclusive: 16.4 µM [activator, partial curve]
Cc1ccc(-n2c(=S)sc3c(=O)n(-c4ccccc4F)c(SCC(=O)O)nc32)cc1C | inactive: -0.541% | 
Cc1ccc(NC(=O)COC(=O)CSC(=S)N2CCOCC2)cc1 | inactive: 7.44% | 

Compound | activity change, positive = activation | Potency
C=CCNc1nc(Cl)nc(Nc2ccccc2)n1 |  | inconclusive: 11.6 µM [activator, partial curve, poor fit]
COc1ccc(Cl)cc1NC(=O)C[n+]1cccc(C)c1 | inactive: -2.9% | 
Cc1cc(C(=O)Nc2ccc(OCc3ccccc3)cc2)c(C)o1 |  | inconclusive: 18.3 µM [activator, partial curve, poor fit]
O=C(N/N=C/c1ccccc1OC(=O)c1ccc2c(c1)OCO2)c1ccccc1 |  | inconclusive: 25.9 µM [activator, single point]
COc1ccc2nc(N=Nc3ccc(N(C)C)cc3)sc2c1 |  | inconclusive: 0.517 µM [activator, partial curve]
Cc1onc(-c2ccccc2)c1C(=O)Nc1cccc2nsnc12 |  | inconclusive: 29.1 µM [activator, partial curve, poor fit]
Cc1cccc(CN2C(=O)/C(=C\c3ccc(C(=O)NCCCN4CCN(C)CC4)cc3)Oc3ccccc32)c1 |  | inconclusive: 18.3 µM [activator, partial curve, poor fit]
O=C(/C=C/c1ccc(Cl)c([N+](=O)[O-])c1)Nc1cccnc1 | inactive: 7.4% | 
COc1ccc(S(=O)(=O)N2CCC(C(=O)Nc3nccs3)CC2)cc1 |  | inconclusive: 2.59 µM [activator, partial curve]
O=[N+]([O-])c1cccc(/C=N/Nc2ncc(Br)cn2)c1 |  | inconclusive: 16.4 µM [activator, partial curve, poor fit]
O=C(N/N=C/c1ccccn1)c1ccncc1 |  | inconclusive: 18.3 µM [activator, partial curve, poor fit]
Cc1ccccc1NC(=O)c1cc2c(C)nc3ccccc3c2o1 |  | inconclusive: 0.0052 µM [activator, full curve, poor fit]
COc1cccc(NC(=O)c2cccc(C)c2[N+](=O)[O-])c1 |  | inconclusive: 16.4 µM [activator, partial curve, poor fit]
CC1CCC2C(=O)N(c3cccc(C(=O)Nc4ccccc4Cl)c3)C(=O)C2C1 (stereo unspecified) | inactive: -0.53% | 
Cc1csc(NC(=O)CS(=O)(=O)c2ccccc2)n1 |  | inconclusive: 29.1 µM [activator, partial curve, poor fit]
CC(C)(C)c1ccc(C(=O)NCC(=O)OCCN2C(=O)c3ccccc3C2=O)cc1 |  | inconclusive: 18.3 µM [activator, partial curve, poor fit]
CCOC(=O)c1[nH]c(C)c(C(=O)Nc2ccccc2C)c1C |  | inconclusive: 29.1 µM [activator, single point]
O=C1CCC(=O)N1CCCCCc1nc(-c2ccccc2)no1 |  | active: 20.6 µM
CCOc1cccc(/C=N/NC(=O)c2cccnc2)c1O |  | inconclusive: 23.1 µM [activator, single point]
COc1ccc(C2=CC(c3ccc(C)cc3)n3nnnc3N2)cc1 (stereo unspecified) | inactive: -6.98% | 
COc1ccc(-c2ccc(NC(=O)c3ccco3)cc2)nn1 |  | inconclusive: 0.58 µM [activator, full curve]
CCOc1ccc(NC(=O)COc2ccc(C(=O)NCCc3ccccc3)cc2)cc1 |  | inconclusive: 20.6 µM [activator, single point]
O=C(Nc1ccccc1)Nc1cccc2nsnc12 |  | inconclusive: 4.61 µM [activator, full curve, poor fit]
